In all, about 33,000 sequences were measured (“E-score (-0.5 to 0.5)”: median about -0.013, highest 2% from about 0.3 on). The list shows a part of the results.
target: T1, Msn1 (UniProt P22148); assay: PBM E-score (8-mer binding enrichment) (E-score (-0.5 to 0.5)); higher = stronger / more preferred TF binding; most listed sequences are background and not binding sites; details: protein concentration: 200 nM; construct: GST-full length
T1 sequence: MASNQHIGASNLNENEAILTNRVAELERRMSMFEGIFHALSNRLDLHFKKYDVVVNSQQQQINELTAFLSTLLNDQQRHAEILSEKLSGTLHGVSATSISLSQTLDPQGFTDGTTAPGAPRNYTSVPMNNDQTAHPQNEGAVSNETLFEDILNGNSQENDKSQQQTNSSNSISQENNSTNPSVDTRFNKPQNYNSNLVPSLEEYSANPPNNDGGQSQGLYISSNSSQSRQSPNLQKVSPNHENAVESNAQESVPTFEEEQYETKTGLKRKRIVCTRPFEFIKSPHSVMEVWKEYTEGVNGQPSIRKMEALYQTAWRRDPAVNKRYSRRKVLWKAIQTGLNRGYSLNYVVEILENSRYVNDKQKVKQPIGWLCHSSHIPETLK
Method: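 Universal 'all 10-mer' protein binding microarrays (Agilent AMADID 015681) probed with GST-tagged S. cerevisiae TFs (full-length or DBD) made by in vitro transcription/translation (PURExpress), about 100-200 nM. Bound TF was detected with fluorescent anti-GST. Each ungapped 8-mer (which stands for itself and its reverse complement) is scored by the PBM enrichment score (E-score), a modified Wilcoxon-Mann-Whitney statistic from -0.5 to +0.5, computed with the Universal PBM Analysis Suite. Scale: above 0.35 generally sequence-specific binding.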

Row | Sequence | PBM E-score
1 | AATACGCG | 0.0996
2 | TATCATCA | 0.0286
3 | CATCGAAA | -0.0139
4 | ACTCGATA | -0.055
5 | AATGTCGG | 0.33
6 | ACAGAGCC | -0.0387
7 | CCGTGTCG | 0.00655
8 | GGCGTTAA | -0.112
9 | ACAGCGGT | -0.0473
10 | GTCAACTA | 0.0539
11 | ATCACGGA | 0.136
12 | CTACGTCA | -0.117
13 | CACGTTAG | -0.104
14 | CACCAATC | -0.145
15 | ACGAGTCT | -0.0682
16 | CTGGCAGA | -0.0414
17 | AGATCCCA | -0.103
18 | AGACGCTC | 0.0257
19 | CTATCACC | -0.23
20 | CTTCTTGA | 0.0621
21 | CTTTACAA | -0.147
22 | TATGTCGA | 0.289
23 | CTCGTTAC | -0.0524
24 | AAATACGT | 0.0253
25 | CTCTGCGA | 0.0385

Row | Sequence | PBM E-score
26 | AACGAACG | 0.0498
27 | CTTGTCTA | 0.324
28 | AAGGCTCC | -0.319
29 | CCGACCCC | -0.354
30 | GGAGTCAA | -0.259
31 | AGATTGTC | 0.369
32 | ACCAGAGA | -0.0229
33 | GTTAACGA | 0.0125
34 | CAGCTGGA | 0.0641
35 | ACTGGACG | 0.0533
36 | GGCGAATA | -0.0359
37 | GCACTAAA | 0.132
38 | AGTATTAT | 0.15
39 | AACTATGG | -0.144
40 | GCTAGGCC | -0.11
41 | AGAACTTC | -0.048
42 | CTATTTGA | 0.0663
43 | AACTAGGA | 0.154
44 | CCCACCCA | -0.197
45 | GAAGATAC | 0.0257
46 | TAATGTCA | 0.259
47 | AGGACAGG | 0.28
48 | CAAAAATG | 0.185
49 | AAAGGTTG | -0.101
50 | CCTGACGC | -0.332

Row | Sequence | PBM E-score
51 | CATCTACC | -0.0491
52 | ATAGTGCG | -0.109
53 | AACACGGA | 0.108
54 | ACTAAGTA | 0.0761
55 | AGGTATGC | 0.0977
56 | AAGGGCGC | -0.0787
57 | CCGGCCAC | -0.0999
58 | TAAATAAA | 0.273
59 | CAGCGTTA | -0.131
60 | CGGACTTA | 0.215
61 | GCAGGCGA | -0.00145
62 | GACAGGTC | -0.0396
63 | TCGGAGAA | -0.00799
64 | ACTGGGGC | -0.212
65 | CGACGAGC | -0.0652
66 | CCTTAAGC | -0.104
67 | AGGACATG | 0.484
68 | TCGAGCAA | -0.0738
69 | GGCTGACC | -0.177
70 | ATAGGCGA | 0.044
71 | CGTTAGTA | -0.0293
72 | GATAACCA | -0.099
73 | CGGTCTAC | -0.0144
74 | AACAATCG | -0.0344
75 | CGTCCGAG | 0.0727

Row | Sequence | PBM E-score
76 | AACTAGTG | -0.014
77 | AGACCTAG | -0.0169
78 | AGTCGGGG | -0.184
79 | CAATCCTA | -0.0742
80 | ACAGTAAC | 0.0766
81 | CCCCTAGC | -0.414
82 | GGCACGCA | -0.215
83 | CACTGCTA | 0.0351
84 | ACGCGGGG | -0.0632
85 | CCATAGCA | -0.196
86 | ATAAAACA | 0.115
87 | CGCCACAC | -0.0716
88 | ACCTCGTA | -0.061
89 | TAGGGGCA | -0.254
90 | GCTCTTCA | -0.0559
91 | CTTTAAAC | 0.0897
92 | CGGATGAA | 0.215
93 | CATACTCA | 0.0936
94 | AGTCGGGA | 0.0332
95 | AACCCGGC | -0.114
96 | GACTGCGC | -0.199
97 | ATGTAGAG | -0.0694
98 | ATCCATCG | -0.0899
99 | CACAATGA | 0.117
100 | CAAAATTG | 0.243

Row | Sequence | PBM E-score
101 | CCCTCTAG | -0.306
102 | AGTCTGCA | -0.0414
103 | ATCATATG | 0.264
104 | AAGTCTGG | 0.0232
105 | CAGCAGCA | -0.118
106 | GATAACGA | 0.0435
107 | GACTCGCA | -0.107
108 | ATGCTGCG | -0.0938
109 | AATGGCGG | -0.00311
110 | CTCAAACC | -0.00631
111 | AATCGGTC | 0.0137
112 | CGAGGGAG | -0.302
113 | CCATCTTA | -0.0532
114 | CACAGTAG | -0.0222
115 | GTACAGAC | 0.179
116 | ACTAGTTG | -0.0917
117 | CCGATACA | 0.132
118 | CCCTCTGC | -0.383
119 | AACGTTTG | -0.00651
120 | CAGCTAGA | -0.0369
121 | AGATAACA | 0.0684
122 | GTGCTCTA | -0.159
123 | CATAGAAC | -0.136
124 | AGTAAAAC | -0.0534
125 | ACTGCCGC | 0.0385

Row | Sequence | PBM E-score
126 | CGTGCATC | -0.203
127 | ATCGTAAG | -0.07
128 | CCCGCGAA | 0.0232
129 | GAAGATCC | 0.0124
130 | CGGAGCTC | -0.0232
131 | CTTCCAAA | -0.0435
132 | ACTTAGAT | 0.288
133 | GGACATAC | 0.48
134 | CCTTTTAC | 0.0837
135 | AACAAATG | 0.291
136 | TCAGGCAA | -0.0779
137 | ATGCAGAC | 0.144
138 | CCCATGAA | -0.0272
139 | GCTTAAGA | -0.0621
140 | AAGATTCG | 0.174
141 | AAAGCAAG | 0.0738
142 | AGTGATAA | 0.024
143 | AGCTAACG | 0.0181
144 | CCGCTCGC | -0.188
145 | CAATGCTA | -0.0155
146 | CGTTTGCA | 0.0699
147 | CTGTCGAA | -0.0976
148 | CAAGGAAC | 0.123
149 | AGGCCAAA | -0.119
150 | CTGTTACA | 0.0596

Row | Sequence | PBM E-score
151 | CCTCGCTA | -0.212
152 | GCAGGACA | 0.47
153 | ACCCGTTA | 0.00896
154 | AAATAAGA | 0.154
155 | ATATAAGA | 0.182
156 | CTCAAGGA | 0.0528
157 | AAGCGCTG | -0.0591
158 | AAGACCTC | -0.222
159 | TCAGCCGA | 0.13
160 | ACCCATAG | -0.292
161 | CCATAACG | 0.00258
162 | GAGCCTGA | -0.153
163 | GGAAAATA | 0.114
164 | AACGTCTA | 0.0482
165 | ATAACTTC | 0.142
166 | CCCTTGAG | -0.135
167 | GCCACTGA | -0.295
168 | GAAGGTTA | -0.0328
169 | AAGGAGGA | -0.153
170 | GCCAGAGA | -0.0332
171 | CATGAGGG | -0.0694
172 | GTAGAGGA | -0.329
